In article PMC4336329 (PLoS ONE, 2015):
Out of some 310,000 compounds screened, about 14,000 (4.5%) showed an effect of 50% or more. The effect is printed as a negative number. The list shows a part of the results.

These molecules were tested against human ether-à-go-go-related gene (hERG) potassium channel (human, UniProt Q12809) (assay: primary screen, population patch clamp on CHO cells stably expressing hERG).
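Further: peak tail current of the secondary pulse compared with the same well before compound.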

Chain of human ether-à-go-go-related gene (hERG) potassium channel (Q12809 whole entry, looked up): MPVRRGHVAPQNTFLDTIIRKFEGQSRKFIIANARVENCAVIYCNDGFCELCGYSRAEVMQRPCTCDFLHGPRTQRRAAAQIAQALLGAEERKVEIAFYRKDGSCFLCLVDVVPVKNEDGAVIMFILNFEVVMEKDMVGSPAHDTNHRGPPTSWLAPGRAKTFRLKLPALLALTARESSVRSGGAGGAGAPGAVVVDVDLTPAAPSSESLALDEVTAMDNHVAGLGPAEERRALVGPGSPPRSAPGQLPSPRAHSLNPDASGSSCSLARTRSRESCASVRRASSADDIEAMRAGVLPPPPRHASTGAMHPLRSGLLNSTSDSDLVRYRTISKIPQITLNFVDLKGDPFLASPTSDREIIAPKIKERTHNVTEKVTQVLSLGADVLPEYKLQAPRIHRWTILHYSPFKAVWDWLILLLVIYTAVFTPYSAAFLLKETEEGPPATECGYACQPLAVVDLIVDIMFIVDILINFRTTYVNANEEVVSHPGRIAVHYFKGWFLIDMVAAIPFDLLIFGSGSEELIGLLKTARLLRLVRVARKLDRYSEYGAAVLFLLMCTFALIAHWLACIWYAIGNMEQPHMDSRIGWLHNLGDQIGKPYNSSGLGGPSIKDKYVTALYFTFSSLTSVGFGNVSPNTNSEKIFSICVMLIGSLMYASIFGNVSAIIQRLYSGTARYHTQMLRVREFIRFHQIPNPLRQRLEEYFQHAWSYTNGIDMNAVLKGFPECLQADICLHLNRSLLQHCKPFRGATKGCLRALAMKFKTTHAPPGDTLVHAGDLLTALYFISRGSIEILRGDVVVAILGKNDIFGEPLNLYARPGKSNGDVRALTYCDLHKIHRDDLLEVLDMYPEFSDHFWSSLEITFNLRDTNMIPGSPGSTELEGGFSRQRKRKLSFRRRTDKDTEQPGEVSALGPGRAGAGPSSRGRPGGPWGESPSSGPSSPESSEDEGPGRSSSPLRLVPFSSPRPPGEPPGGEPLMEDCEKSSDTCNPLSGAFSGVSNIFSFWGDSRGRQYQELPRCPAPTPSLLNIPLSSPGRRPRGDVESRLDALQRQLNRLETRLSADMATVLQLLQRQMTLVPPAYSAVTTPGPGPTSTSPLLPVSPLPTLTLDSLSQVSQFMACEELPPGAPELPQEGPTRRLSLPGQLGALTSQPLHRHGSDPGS

Compound	hERG current change (%, negative = inhibition) at 10uM [%]
COc1ccc(NC(=O)c2cc(=O)[nH]c(=O)[nH]2)cc1S(=O)(=O)Nc1ccccc1Cl	19.4
CC(C)(C)C(=O)CN1C(=O)NC2(CCOc3ccccc32)C1=O (stereo not drawn)	4.47
Cc1noc(C)c1C(=O)Nc1ccccc1N1CCCC1	-1.23
NP(=O)(OCC(F)(F)F)Oc1cccc2ccccc12 (stereo not drawn)	-12.4
Cc1cc(NC(=O)c2ccccc2)ccc1NC(=O)c1ccccc1Cl	15.8
CC(C)(C)c1cc(N/C=C\c2nnnn2-c2ccc(Br)cc2)no1	12.1
CN(C)c1ccc(-c2c(-c3ccc4c(c3)OCO4)noc2-c2ccsc2)cn1	0.917
CSc1nccc(Oc2cccc(C#N)c2)n1	-14.4
Cc1cc(C)n2c(SC(C)C(=O)NC3(C#N)CCCCC3)nnc2n1 (stereo not drawn)	20.5
CCCCCc1nnc(N)s1	0.168
Cc1nc(Cc2nnc(SCc3nc(N)nc(Nc4ccccc4C)n3)o2)cs1	-3.37
CCOc1ccc(C(C)C)cc1S(=O)(=O)N1CCOCC1	-6.35
CCOC(=O)N1CCC(NC(=O)CSc2cc(=O)n(CC)c3ccccc23)CC1	-3.31
COc1cccc(OCC(=O)Nc2ccccc2C(N)=O)c1	9.1
COCCCNC(=O)c1oc2ccc(S(=O)(=O)N(C)C3CCCCC3)cc2c1C	-4.45
CCOc1ccccc1NC(=O)CCCc1ccc(OC)c(C)c1	-14.7
O=C(Nc1ccccc1)N1CCC(C(=O)N2CCCC(C(F)(F)F)C2)CC1 (stereo not drawn)	16
COc1cccc(NC(=S)N2CCN(Cc3ccccc3)CC2)c1	-5.9
CCn1c(Cc2ccccc2)nnc1SCC(=O)Nc1nc(C)cs1	-12.4
O=C(CN1C(=O)CSCC1=O)Nc1ccc2c(c1)OCO2	16.2
O=C(c1cccs1)N(CCN1CCCCC1)CC1CCCN(C2CCCC2)C1 (stereo not drawn)	1.03
N#CCCN(C(=O)COC(=O)Cc1c[nH]c2ccccc12)c1ccccc1	1.86

Compound	hERG current change (%, negative = inhibition) at 10uM [%]
COc1ccccc1NC(=O)CCC(=O)N/N=C(/C)c1ccc(C)cc1	9.03
O=C(Nc1ccc(CN2CCOCC2)cc1)c1ccc(Cl)cc1	-15.2
Cc1ccc(/C(N)=N/OC(=O)c2cc(-c3ccccc3)nc3ccccc23)cc1	4.59
CCOC(=O)c1c(NC(=O)C2C3C=CC(CC3)C2C(=O)O)sc(C)c1C (stereo not drawn)	-11.3
Cc1cc(C)n2nc3ccccc3c2n1	7.41
Cc1cccc(/C=C/c2onc(C)c2S(=O)(=O)N2CCC(C(=O)N3CCCCC3)CC2)c1	4.27
Cc1nc(SCc2ccccc2F)c2oc3ccccc3c2n1	15.4
COc1ccc(-c2oc3ncn4nc(COc5ccccc5)nc4c3c2-c2ccc(OC)cc2)cc1	-1.99
Nc1[nH]c2cc([N+](=O)[O-])ccc2c1-c1ccccn1	20.1
COc1ccc(CCNC(=O)/C=C/c2ccc(S(=O)(=O)N3CCOCC3)cc2)cc1	-14.9
CSc1ncccc1C(=O)OCC(=O)c1cccc(Br)c1	2.95
COc1ccc(N(CC(O)Cn2c(C)nc3ccccc32)S(=O)(=O)c2ccc(C)cc2)cc1 (stereo not drawn)	-11.5
Nc1c2c(nc3sc4c(c13)CCCCC4)CCCCC2	-25.9
CCCc1cc(=O)[nH]c2nnc(SCC(=O)Nc3nccs3)n12	-4.26
O=CN1CCN(C(=O)c2ccc3c(c2)OCO3)CC1	21.6
COC(=O)C1=C(C)NC(C)=C(C(=O)OC)C1C(=O)OC1CCCCC1=O (stereo not drawn)	3.76
Cc1cccc2sc(N(CCCN(C)C)C(=O)CN3C(=O)c4ccccc4C3=O)nc12.Cl	-11.2
Cc1cc(NC(=O)C2CCCN(S(=O)(=O)c3c(C)noc3C)C2)no1 (stereo not drawn)	-0.534
COc1ccc(N2CCN(c3nc(=S)n(-c4ccccc4)c(C)c3C(C)=O)CC2)cc1	-9.97
CC(C)N(Cc1nc(-c2ccc(Cl)cc2)no1)C(=O)C(c1ccccc1)c1ccccc1	-7.12
Cc1ccc(S(=O)(=O)NC(=O)NCCCCNC(=O)NS(=O)(=O)c2ccc(C)cc2)cc1	-1.26
O=C(Oc1ccc2c3c(c(=O)oc2c1)CCC3)c1ccccc1[N+](=O)[O-]	3.02

Compound	hERG current change (%, negative = inhibition) at 10uM [%]
O=C(OCc1csc(-c2ccccc2)n1)C1=NN(c2ccccc2)C(=O)CC1	4.47
CC(C)n1c(SCC(=O)N2CCN(C(=O)c3ccco3)CC2)nc2c1c(=O)n(C)c(=O)n2C	-50.9
Cc1ccc(N=C2NC(=O)/C(=C/c3cccn3C)S2)cc1	-5.73
Cc1ccccc1CN(C)CC(=O)Nc1cccc(S(=O)(=O)N(C)c2ccccc2)c1	2.13
O=C(NNC(=O)C1CC(=O)N(c2ccc3c(c2)OCCO3)C1)c1ccc(F)cc1 (stereo not drawn)	-5.99
CC(C(=O)Nc1ccc(OCc2ccccc2)cc1)N1CCCC1 (stereo not drawn)	-21.6
CC(C)(C)C(=O)Nc1ccccc1C(=O)OCC(=O)c1ccc2c(c1)OCCO2	7.1
COc1ccc(CCN2CC(C(=O)OC(C)C(=O)Nc3cccc(Cl)c3)CC2=O)cc1OC (stereo not drawn)	-5.73
Cc1[nH]c2c(C)cccc2c1CN1CCC(CO)(Cc2ccccc2)CC1	-62.2
COC(=O)CCC(=O)Nc1cc(S(=O)(=O)Nc2ccc(Cl)cc2)ccc1N1CCOCC1	-17.6
O=C(/C=C/c1ccc2ccccc2n1)N1CCN(S(=O)(=O)c2ccccc2F)CC1	-15.9
O=C(CC12CC3CC(CC(C3)C1)C2)NC(=S)NCc1ccco1	15
Cc1cccc(N2CCN(S(=O)(=O)c3ccc4[nH]c(=O)c(=O)[nH]c4c3)CC2C)c1 (stereo not drawn)	12.9
COc1ccc(CCNC(=O)CCc2nc3sc4c(c3c(=O)[nH]2)CCCC4)cc1	9.78
Cc1ccc(Cn2ccc(O)c(Cc3ccccc3)c2=O)cc1	8.76
CCOC(=O)C1CCN(C(=O)COc2ccc3c(C)cc(=O)oc3c2)CC1	-21.8
O=[N+]([O-])c1cccc(-c2nnc(C3CC3)o2)c1	-8.07
CC(=O)C1=C(O)C(=O)N(c2cc(C(C)(C)C)on2)C1c1ccc(Br)cc1 (stereo not drawn)	-10.1
COCCNC(=O)c1cn(C)c2ccc(S(=O)(=O)N(C)C3CCCCC3)cc2c1=O	-27.7
CC(C)(C)NC(=O)C(OC(=O)c1ccco1)c1ccc(Cl)cc1 (stereo not drawn)	17.8
Cc1ccc(C(=O)NC2CCS(=O)(=O)C2)cc1S(=O)(=O)N1CCCCCC1 (stereo not drawn)	-49.2
CSc1ccccc1NC(=O)CN(C)S(=O)(=O)c1ccc(F)cc1	-35.2

Compound	hERG current change (%, negative = inhibition) at 10uM [%]
COc1cc(OC)cc(C(=O)Nc2ccc(Nc3ccccc3)cc2)c1	-5.67
COC(=O)CN1C(=O)COc2ccc(Cl)cc21	7.5
CN(C)c1ccc(/C=N/NC(=O)c2ccc(Cl)cc2)cc1	-1.48
CCN1CCN(c2ncc3c(n2)CC(c2cc(OC)c(OC)c(OC)c2)CC3=O)CC1 (stereo not drawn)	-2.39
CCc1ccc(N2C(=O)CC(c3ccc(F)cc3)C3=C2COC3=O)cc1 (stereo not drawn)	-15.2
CN(/N=C/c1ccc(Cl)cc1Cl)c1ncc(Cl)cc1C(F)(F)F	8.46
COc1ccc(NC(=O)COc2nsnc2N2CCCCC2)cc1	3.59
COC(=O)c1ccc2c(=O)n(CCCCCC(=O)N3CCN(c4ccccc4)CC3)c(=O)[nH]c2c1	-0.133
Oc1[nH]c2ccccc2c1N=Nc1nc2ccccc2s1	-1.15
Cc1ccc(NC(=O)CCS(=O)(=O)c2cc3[nH]c(=O)c(=O)[nH]c3cc2C)cc1	25.1
O=C([O-])/C=C\C(=O)[O-].c1ccc2nc(N3CCNCC3)ccc2c1	-1.6
Cc1ccc(C(=O)Cn2nc(C)c([N+](=O)[O-])c2C)c(C)c1	-25.1
CCOc1ccc(NC(=O)CSc2nnc(-c3ccccn3)n2N)cc1	-12
Cc1cc(C)n2nc(CNS(=O)(=O)c3ccc(C)c(C)c3)nc2n1	4.59
Cc1ccccc1N1CCN(c2ccc(NC(=O)C3CCCCC3C(=O)O)cc2)CC1 (stereo not drawn)	6.88
CCn1c(N2CCN(S(=O)(=O)c3ccc(Cl)cc3)CC2)nc2ccccc21	-48.4
Cl.Cn1nnnc1SCCNCc1ccccc1OCc1ccc(F)cc1	-29.6
CC1(C)CC(=NOC(=O)c2ccccc2)CC(C)(C)N1	-13.4
Cc1nn(-c2ccccn2)c2c1C(c1ccccc1Cl)C1=C(N2)c2ccccc2C1=O (stereo not drawn)	20.2
O=C(CSc1ncn[nH]1)Nc1ccc(Br)cc1F	-5.57
COc1ccccc1/C=C1/C(=O)N(c2cc(C)cc(C)c2)C(c2cccc([N+](=O)[O-])c2)S1(=O)=O (stereo not drawn)	11.9
